Experimental data: paper PMC4336329 (PLoS ONE, 2015)
The whole screen tested about 310,000 compounds, of which about 2,200 (0.71%) showed an effect of 50% or more. The effect is printed as a negative number. Some of the results follow.

molecular target: human ether-à-go-go-related gene (hERG) potassium channel (human, UniProt Q12809); assay: primary screen, population patch clamp on CHO cells stably expressing hERG
Sequence (Q12809 whole entry, looked up): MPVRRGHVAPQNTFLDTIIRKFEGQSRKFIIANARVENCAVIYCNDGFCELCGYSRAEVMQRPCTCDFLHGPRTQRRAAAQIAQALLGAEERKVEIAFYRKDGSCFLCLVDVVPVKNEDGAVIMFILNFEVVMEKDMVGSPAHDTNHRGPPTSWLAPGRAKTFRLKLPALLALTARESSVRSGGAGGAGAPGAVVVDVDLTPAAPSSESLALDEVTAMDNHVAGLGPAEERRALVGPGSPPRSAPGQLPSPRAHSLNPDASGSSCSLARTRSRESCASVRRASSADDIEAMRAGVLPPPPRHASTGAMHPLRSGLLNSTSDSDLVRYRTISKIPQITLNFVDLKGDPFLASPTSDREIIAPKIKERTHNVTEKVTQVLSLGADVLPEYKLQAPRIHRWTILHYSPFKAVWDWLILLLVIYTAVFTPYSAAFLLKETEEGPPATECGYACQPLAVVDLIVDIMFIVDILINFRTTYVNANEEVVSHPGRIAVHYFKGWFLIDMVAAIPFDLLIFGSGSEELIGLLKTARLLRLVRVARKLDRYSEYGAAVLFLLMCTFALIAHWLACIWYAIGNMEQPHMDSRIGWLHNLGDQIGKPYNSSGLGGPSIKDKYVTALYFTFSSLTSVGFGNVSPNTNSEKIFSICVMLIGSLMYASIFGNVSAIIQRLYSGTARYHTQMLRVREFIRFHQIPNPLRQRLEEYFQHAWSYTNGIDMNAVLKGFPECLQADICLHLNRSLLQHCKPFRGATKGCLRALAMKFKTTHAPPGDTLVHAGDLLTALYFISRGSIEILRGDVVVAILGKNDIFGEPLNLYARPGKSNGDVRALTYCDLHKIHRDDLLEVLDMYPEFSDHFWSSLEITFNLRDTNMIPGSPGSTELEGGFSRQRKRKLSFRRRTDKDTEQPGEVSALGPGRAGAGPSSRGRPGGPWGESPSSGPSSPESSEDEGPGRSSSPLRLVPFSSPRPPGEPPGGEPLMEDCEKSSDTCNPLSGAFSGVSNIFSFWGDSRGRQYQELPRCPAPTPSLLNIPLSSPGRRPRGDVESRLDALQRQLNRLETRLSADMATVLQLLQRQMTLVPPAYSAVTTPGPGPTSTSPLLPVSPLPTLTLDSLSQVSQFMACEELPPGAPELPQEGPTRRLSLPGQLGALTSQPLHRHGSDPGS

SMILES	hERG current change (%, negative = inhibition) at 1uM [%]
O=C(CCNC(=O)Cn1ccc2ccccc2c1=O)NCc1ccccn1	4.34
CN(C)S(=O)(=O)c1ccc(S(=O)(=O)NCCN2CCOCC2)cc1.Cl	11.2
CSc1nn2c(C(F)(F)F)cc(C(F)(F)F)nc2c1C(=O)O	9.28
COc1cc(CNCc2cccs2)cc(Br)c1OC.Cl	7.99
CCC(CC)C(=O)Nc1c2c(nn1-c1ccc(F)cc1)CS(=O)(=O)C2	14
O=C1N(CN2CCC3(CC2)OCCO3)c2ccccc2C12OCCCO2	-9.92
COc1ccc(CCC(=O)NNC(=O)Nc2ccc(C(C)C)cc2)cc1	18.8
COc1cccc(OC)c1C(=O)Nc1ccc(S(=O)(=O)Nc2cc(C)nc(C)n2)cc1	10.9
COC(=O)c1sc2cc(C(F)(F)F)cnc2c1-c1ccccc1	3.09
NC(=O)c1ccc(CN2CCc3ccccc3C2)cc1	10.9
Cc1ccc(S(=O)(=O)NCC(=O)N(CC(=O)NCc2ccco2)C2CCCC2)cc1	9.4
CCCCCCCCNC(=O)c1cccnc1SCC(=O)Nc1ccccc1OC	4.89
CCN(CC)c1ccccc1	7.02
CCOC(=O)C1CCCC(NS(=O)(=O)c2ccc(NC(C)=O)cc2)C1 (stereo not drawn)	7.71
NNC(=S)NCc1cccnc1	1.74
CCOC(=O)c1ccc(NC(=O)NCc2cccnc2)cc1	12.4
O=C(c1cc(-c2ccncc2)nc2ccccc12)N1CCC2(CC1)OCCO2	-4.07
CCOc1ccc(NC(=O)NN2C(C)CCCC2C)cc1 (stereo not drawn)	12.8
O=C(c1ccco1)N1CCN(S(=O)(=O)c2ccc(Oc3ccccc3)cc2)CC1	11.8
Fc1ccc(N2CCN(/C=C/c3nnnn3-c3ccccc3)CC2)cc1	8.91
CCC(C)(C)NC(=O)C(C)OC(=O)c1nsc(Cl)c1Cl (stereo not drawn)	2.53
CCOc1ccc2c(c1)N(C(=O)CN1C(=O)CCC1=O)C(C)(C)C=C2C	-0.567
CCC1CCc2c(sc(NC(=O)c3ccoc3C)c2C(N)=O)C1 (stereo not drawn)	12.8

SMILES	hERG current change (%, negative = inhibition) at 1uM [%]
CCCCNc1c([N+](=O)[O-])cc(C)cc1[N+](=O)[O-]	0.206
O=C(O)CN1C(=O)/C(=C/c2ccsc2)SC1=S	12
COC(=O)c1ccc(CSc2nnc(-c3ccc4c(c3)OCO4)n2-c2ccccc2)o1	9.72
CN(CC(=O)Nc1ccccc1C(F)(F)F)C(=O)c1ccc(-c2ccc(Cl)cc2)o1	8.84
Cc1cc(NC(=O)c2ccccc2)ccc1NC(=O)Cc1ccccc1	10.3
CCOc1ccccc1NC(=O)c1cc(CC(C)C)oc1C	13.1
CC(C)C(=O)Nc1nnc(SCC(=O)Nc2ccc3c(c2)OCO3)s1	12.1
CC1(C(=O)N/N=C/c2cc3c(cc2Br)OCO3)CC1(Br)Br (stereo not drawn)	5.38
O=C1NC2(CCCC2)C(=O)N1CCS(=O)(=O)Oc1ccccc1	6.24
CCCC(=O)Nc1ccc(NC(=O)c2ccccc2F)cn1	11.2
COc1ccccc1-n1c(O)c(C=NCc2ccccn2)c2ccccc2c1=O	9.65
COC(=O)c1sccc1NC(=O)c1cc(-c2cccc(C)c2)nc2ccccc12	3.61
Cc1ccn(S(=O)(=O)c2ccc3oc(=O)ccc3c2)n1	13
COc1ccc(C(=O)N/N=C/c2c(C)[nH]c(=O)[nH]c2=O)cc1	9.24
O=C(Nc1nc(-c2ccco2)c(-c2ccco2)s1)c1ccco1	2.31
Fc1ccccc1N=C1Nc2cccc3cccc1c23	10.2
CCOC(=O)Cc1csc(NC(=O)Cc2ccccc2)n1	3.31
COc1ccccc1CN1CC(C(=O)NCCn2nc(C)cc2C)CCC1=O (stereo not drawn)	-7.75
COc1ccc2cc(C(c3nnnn3CCc3ccccc3)N3CCC(O)CC3)c(=O)[nH]c2c1 (stereo not drawn)	-1.14
CCc1ccc(OCC(=O)N/N=C/c2cc([N+](=O)[O-])ccc2N2CCCCCC2)cc1	6.01
CCOC(=O)CN1C(=O)S/C(=C/c2ccc(OC)c([N+](=O)[O-])c2)C1=O	10.9
Cc1ccc(C(=O)N(Cc2nc(-c3ccc(C)cc3)no2)C(C)C)cc1	0.608
